# Laboratory results as given in article PMC4336329 (PLoS ONE, 2015).
# The whole screen tested about 310,000 compounds, of which about 14,000 (4.5%) showed an effect of 50% or more. The effect is printed as a negative number. The list shows a part of the results.
# Biological target: human ether-à-go-go-related gene (hERG) potassium channel (human, UniProt Q12809)
# Assay: primary screen, population patch clamp on CHO cells stably expressing hERG
# 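Note: peak tail current of the secondary pulse compared with the same well before compound.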
# human ether-à-go-go-related gene (hERG) potassium channel, sequence (Q12809 whole entry, looked up): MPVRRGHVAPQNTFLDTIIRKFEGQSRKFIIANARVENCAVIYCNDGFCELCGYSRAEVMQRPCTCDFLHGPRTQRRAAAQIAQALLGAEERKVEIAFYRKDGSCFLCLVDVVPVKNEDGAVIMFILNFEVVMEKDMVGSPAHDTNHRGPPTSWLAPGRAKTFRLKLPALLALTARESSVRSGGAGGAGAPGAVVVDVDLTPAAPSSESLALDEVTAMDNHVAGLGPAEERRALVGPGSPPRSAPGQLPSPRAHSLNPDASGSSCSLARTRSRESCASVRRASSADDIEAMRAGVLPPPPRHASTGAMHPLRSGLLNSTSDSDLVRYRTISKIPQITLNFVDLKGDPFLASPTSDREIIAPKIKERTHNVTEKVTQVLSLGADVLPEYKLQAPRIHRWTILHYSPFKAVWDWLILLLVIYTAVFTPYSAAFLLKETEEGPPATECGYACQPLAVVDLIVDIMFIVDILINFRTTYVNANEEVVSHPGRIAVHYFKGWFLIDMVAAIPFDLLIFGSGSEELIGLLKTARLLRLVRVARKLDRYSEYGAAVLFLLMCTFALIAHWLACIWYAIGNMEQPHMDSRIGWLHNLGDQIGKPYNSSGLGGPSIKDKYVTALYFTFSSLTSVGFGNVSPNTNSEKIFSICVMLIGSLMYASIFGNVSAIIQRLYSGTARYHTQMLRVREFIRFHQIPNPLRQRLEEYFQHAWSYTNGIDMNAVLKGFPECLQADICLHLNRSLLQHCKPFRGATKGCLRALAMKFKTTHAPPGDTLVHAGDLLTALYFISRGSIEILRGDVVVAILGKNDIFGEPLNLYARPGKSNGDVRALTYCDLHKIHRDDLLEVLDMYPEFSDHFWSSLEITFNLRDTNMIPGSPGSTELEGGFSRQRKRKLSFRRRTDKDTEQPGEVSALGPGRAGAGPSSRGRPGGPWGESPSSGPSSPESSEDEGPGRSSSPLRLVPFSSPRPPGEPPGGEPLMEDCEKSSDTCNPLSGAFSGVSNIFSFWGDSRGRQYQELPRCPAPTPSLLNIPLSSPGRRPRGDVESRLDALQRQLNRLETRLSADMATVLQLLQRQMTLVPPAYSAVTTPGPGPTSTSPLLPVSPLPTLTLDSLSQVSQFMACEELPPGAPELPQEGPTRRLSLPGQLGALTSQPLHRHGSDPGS
row,Structure (SMILES),"hERG current change (%, negative = inhibition) at 10uM"
1,CCc1ccc2oc(-c3ccc(OC)cc3)cc(=[NH+]c3c(C)n(C)n(-c4ccccc4)c3=O)c2c1.F[B-](F)(F)F,-71.7%
2,Cc1ccc(NC(=O)CCNS(=O)(=O)c2ccccc2)c(C(=O)c2ccccc2)c1,-20.4%
3,O=C(Cc1ccccc1)N/N=C/C=C/c1ccccc1[N+](=O)[O-],1.71%
4,c1ccc(-n2nnnc2N2CCOCC2)cc1,8.78%
5,CCOC(=O)N1CCN(C(=O)c2cccc(NC(=O)c3ccco3)c2)CC1,-11%
6,Cc1ccn2cc(-c3ccc(O)c(O)c3)nc2c1.Cl,-4.03%
7,Cl.OC(CN1C2=NCCN2c2ccccc21)c1ccccc1 (stereo not shown),-42.7%
8,COc1ccc(-n2cc(CNCC3CCOCC3)c(-c3cccc(F)c3)n2)cc1,-78.5%
9,COc1cc2c(cc1NC(=O)C(C)Sc1ccc(NC(C)=O)cc1)oc1ccccc12 (stereo not shown),7.08%
10,O=C(NCc1ccc(F)cc1)C(c1ccccc1)c1ccccc1,4.43%
11,CCOc1ccc(N=Cc2c(O)c3ccccc3oc2=O)cc1,3.29%
12,Cn1c(SCC(=O)NC2CCCCCC2)nnc1-c1cccs1,-22.1%
13,Cc1cccc(CC(=O)N2CCCC2)c1,12.2%
14,CC(C)Oc1ccc(C(=O)Nc2ccc(C(F)(F)F)n(C)c2=O)cc1,9.94%
15,Cc1ccccc1-n1sc2cc(F)ccc2c1=O,31.1%
16,CC(=O)OC(C(=O)Nc1ccccc1)C(C)S(=O)(=O)c1ccccc1 (stereo not shown),-5.81%
17,CCCNc1ccc(C(=O)OCC)cc1[N+](=O)[O-],-6.67%
18,O=C(/C=C/c1ccc(Cl)cc1)N(c1ccccn1)C1CCCCC1,-7.91%
19,CCOc1ccc2nc(SCC(=O)NCc3ccccc3)[nH]c2c1,2.63%
20,COC(=O)c1cccc(NC(=O)c2ccc(OC)c(Cl)c2)c1,-65.3%
21,Cc1ccccc1N(CC(=O)NCCc1ccccc1)C(=O)c1csnn1,9.77%
22,O=S(=O)(Cc1ccccc1)N1CCN(C/C=C/c2ccccc2)CC1,-5.88%

row,Structure (SMILES),"hERG current change (%, negative = inhibition) at 10uM"
1,CC(=O)Nc1ccc(/C=C/c2nc3ccccc3o2)cc1,5.42%
2,O=C(Nc1ccc(F)c(F)c1)C1CCCCC1,4.34%
3,CSc1nc2ccc(NS(=O)(=O)c3ccc4c(c3)OCCO4)cc2s1,5.09%
4,COC(=O)C1CN(C(=O)C(C)Oc2ccc(C(C)C)cc2)c2ccccc2O1 (stereo not shown),0.965%
5,CCCN(CC(=O)Nc1ccccc1OC)C(=O)c1ccc2c(c1)NC(=O)C(C)S2 (stereo not shown),-20.8%
6,CSCCC(NS(=O)(=O)c1ccc2c(c1)OCCO2)C(=O)N(C)Cc1ccccc1F (stereo not shown),-26.1%
7,COc1cccc(-c2cc(C(F)(F)F)nc(N3CCN(c4ccccc4)CC3)n2)c1,13.8%
8,Cn1c(N)c(C(=O)COC(=O)C2CC(=O)N(Cc3ccccc3)C2)c(=O)n(C)c1=O (stereo not shown),3.62%
9,CS/C(N)=N/N=C/c1cc(Br)cc(Br)c1O,4.8%
10,Cc1ccc(S(=O)(=O)Oc2ccc(N3C(=O)C4C5CCC(C5)C4C3=O)cc2)cc1 (stereo not shown),11.4%
11,COc1ccc(/C=N\NC(=O)c2cc3c(ccc4ccccc43)o2)cc1O,5.36%
12,CC1(C)CC2(CCO1)CNC(=O)O2 (stereo not shown),2.78%
13,COc1ccc(/C=N/Nc2nc(-c3ccc(C)cc3)c(NC(C)=O)s2)cc1OC,11%
14,Cc1nnc(NC(=O)CSc2nc(N)c(NC(=O)c3cccs3)c(=O)[nH]2)s1,9.44%
15,CC(C)CC(NC(=O)c1ccc(Cl)cc1)C(=O)OCc1cc([N+](=O)[O-])cc2c1OCOC2 (stereo not shown),-4.59%
16,O=C(CSc1ccc([N+](=O)[O-])cc1)NNC(=O)c1ccccc1F,-38.9%
17,O=C(OCC(=O)N1CCCCCC1)c1ccc([N+](=O)[O-])cc1Cl,8.47%
18,CCc1ccccc1NC(=O)c1cc(S(=O)(=O)N(C)C)ccc1N1CCCC1,-32.2%
19,c1csc(-c2nc(NCCCN3CCOCC3)c3ccccc3n2)c1,-50.7%
20,CCOc1ccc2ccccc2c1C1NC(=S)N(C)C(C)=C1C(=O)OC (stereo not shown),14.4%
21,COc1c(C=O)c(CCN(C)C(=O)c2ccc(F)cc2)cc2c1OCO2,7.91%
22,Cc1nn(Cc2c(F)c(F)c(F)c(F)c2F)c(C)c1NC(=O)c1c([N+](=O)[O-])c(C)nn1C,18.5%

row,Structure (SMILES),"hERG current change (%, negative = inhibition) at 10uM"
1,Cc1ccc(S(=O)(=O)N2CCN(C(=O)C3=COCCO3)CC2)cc1C,-17.1%
2,CC1(C)OC(c2ccccc2)=C/C(=C\C=N\NC(=O)c2ccncc2)O1,-11.5%
3,CCc1nn(CCCC(=O)N2CCN(c3ccc(OC)cc3)CC2)c(=O)c2cc3occc3n12,-2.74%
4,O=C(Cc1cccc(NC(=O)C2CCN(C(=O)C3CCCCC3)CC2)c1)Nc1cccc(C(=O)N2CCCC2)c1,7.98%
5,CCOC(=O)C(C)Oc1cccc2c(=O)n(CC(=O)Nc3ccc(OCC)cc3)ccc12 (stereo not shown),2.38%
6,COc1ccc(N2CC(C(=O)NNC(=O)c3ccc(Br)cc3)CC2=O)c(OC)c1 (stereo not shown),-20.2%
7,CCN(CC)CCCN=C(C)c1c(O)n(C2CCCCC2)c(=O)[nH]c1=O,-48.7%
8,O=C(CN1CCN(c2ccccc2)CC1)N/N=C/c1cccc(F)c1,4.27%
9,Cc1ccc(/C=C2/NC(=O)N(Cc3ccccc3F)C2=O)s1,11.8%
10,CCOC(=O)C1=C(COC(=O)CNC(=O)c2ccccc2F)NC(=O)NC1C (stereo not shown),7.46%
11,O=C1CCC([N+](=O)[O-])C(c2ccc(Br)cc2)N1 (stereo not shown),7.57%
12,COC(=O)C1Cc2c([nH]c3ccccc23)C2(CCN(Cc3ccccc3)CC2)N1 (stereo not shown),-68.2%
13,COc1ccc(CCNC(=O)c2ccc(-c3ccc([N+](=O)[O-])cc3Cl)o2)cc1OC,-16.5%
14,CC(C)Cn1c(SCC(=O)N(C)c2c(N)n(Cc3ccccc3)c(=O)[nH]c2=O)nc2ccccc21,17%
15,O=C(O)Cc1ccc(-n2cccc2)cc1,29.2%
16,COc1cccc(CNC(=S)Nc2cccc(Cl)c2C)c1,4.16%
17,COc1ccc(S(=O)(=O)N2CCCCCC2)cc1NC(=O)CN1C(=O)NC(C)(c2ccc(C)cc2)C1=O (stereo not shown),-12.8%
18,O=C(NCc1ccco1)C(c1ccncc1)N(C(=O)Cn1nnc2ccccc21)c1ccccc1F (stereo not shown),-4.14%
19,Cc1ccc(-c2c[n+](Cc3ccc(Cl)c(Cl)c3)c3n2CCC3)cc1.[Cl-],-68.9%
20,COc1ccc(S(=O)(=O)N2CCN(CCc3ccccc3)CC2)cc1,5.3%
21,Cc1ccc(C2=NN(CCC(=O)NCc3ccc4c(c3)OCO4)C(=O)CC2)cc1,-69.7%
22,O=C1CCCN1CCCNc1ncnc2c1[nH]c1ccccc12,13%

row,Structure (SMILES),"hERG current change (%, negative = inhibition) at 10uM"
1,COc1ccc(CCC(=O)Nc2nccs2)cc1OC,4.3%
2,COc1cc(CC(=O)Nc2ccc(S(=O)(=O)N(C)C)cc2)cc(OC)c1OC,0.00448%
3,O=C(Nc1ccc2c(c1)CCCN2C(=O)c1ccccc1)c1ccccc1,-29%
4,Cc1cc(C)n(-c2nc3ccccc3nc2N2CCN(S(=O)(=O)c3ccc(F)c(C)c3)CC2)n1,9.54%
5,CON(C)c1nc(OCCNC(=O)COc2ccc(Cl)cc2C)nc(N(C)C)n1,-12.7%
6,Cc1ccc2cc(CN(C)S(C)(=O)=O)c(=O)[nH]c2c1,26.9%
7,Cc1ccc(NC(=O)CC2=NC(=O)C(CC(=O)Nc3ccccc3F)S2)cc1 (stereo not shown),16.9%
8,COc1ccc(C(C)=O)cc1CSc1nnc(Nc2ccc(C)cc2C)s1,6.51%
9,CCOc1ncccc1C(=O)OCC(=O)Nc1ccc(C)c(S(=O)(=O)N2CCOCC2)c1,-27%
10,COCCn1c(C)cc(C(=O)COC(=O)CNC(=O)c2ccco2)c1C,11%
11,CN(C)/C=N/c1c(C#N)cnn1-c1ncnc2sc(-c3ccccc3)cc12,-26%
12,CC(c1ccc(O)cc1)(c1ccc(O)cc1)c1ccc(CCBr)cc1,10.3%
13,Cc1cc(C(=O)NCC(=O)OCC(=O)N(C)C2CCCCC2)ccc1[N+](=O)[O-],-0.454%
14,Cc1cc(C(=O)N2CCN(S(=O)(=O)c3ccc(F)c(Cl)c3)CC2)c(C)o1,-43.6%
15,COc1ccc(CCNC(=O)COC(=O)c2ccc(C)s2)cc1OC,12.1%
16,Cc1nn(Cc2ccccc2Cl)c(Cl)c1C(=O)OCC(=O)NCc1ccco1,11.9%
17,Nn1c(SCc2ccc(F)cc2)nnc1-c1cccnc1,-5.26%
18,Cc1ccnc(NC(=O)c2ccc(S(=O)(=O)N3CCCC3)cc2)c1,-16%
19,Cc1cc(S(=O)(=O)NCc2cccs2)ccc1-n1cnnn1,-0.232%
